Measurements from the supplement of paper PMC3334620.
In all, about 33,000 sequences were measured (“E-score (-0.5 to 0.5)”: median about -0.041, highest 2% from about 0.37 on). This is one part of the list.

Target: T1, Ecm22 (UniProt Q05958)
T1 sequence: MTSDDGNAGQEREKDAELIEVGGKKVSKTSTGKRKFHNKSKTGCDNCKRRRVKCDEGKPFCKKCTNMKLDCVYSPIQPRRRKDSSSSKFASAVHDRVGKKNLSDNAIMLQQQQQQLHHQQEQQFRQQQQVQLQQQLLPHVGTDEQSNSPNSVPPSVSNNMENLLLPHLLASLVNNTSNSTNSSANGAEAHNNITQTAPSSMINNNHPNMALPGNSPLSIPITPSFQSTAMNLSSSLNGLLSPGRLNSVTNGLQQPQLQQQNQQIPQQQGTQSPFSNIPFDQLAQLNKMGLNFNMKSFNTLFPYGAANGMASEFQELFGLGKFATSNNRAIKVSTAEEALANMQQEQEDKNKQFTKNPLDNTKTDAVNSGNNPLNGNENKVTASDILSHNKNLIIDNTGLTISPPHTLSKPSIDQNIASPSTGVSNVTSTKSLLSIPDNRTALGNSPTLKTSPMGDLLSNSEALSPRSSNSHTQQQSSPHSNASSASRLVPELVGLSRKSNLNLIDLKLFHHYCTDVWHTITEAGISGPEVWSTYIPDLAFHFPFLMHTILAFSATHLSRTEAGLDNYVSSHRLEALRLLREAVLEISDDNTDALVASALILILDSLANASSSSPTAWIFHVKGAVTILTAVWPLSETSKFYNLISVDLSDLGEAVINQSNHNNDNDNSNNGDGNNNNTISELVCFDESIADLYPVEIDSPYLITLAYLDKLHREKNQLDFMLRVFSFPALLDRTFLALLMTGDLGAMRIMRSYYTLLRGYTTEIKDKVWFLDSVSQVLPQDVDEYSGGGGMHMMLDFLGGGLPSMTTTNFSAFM
Assay: PBM E-score (8-mer binding enrichment) (E-score (-0.5 to 0.5)); higher = stronger / more preferred TF binding; most listed sequences are background and not binding sites
Conditions: protein concentration: 200 nM; construct: GST-full length
Experimental: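 Universal 'all 10-mer' protein binding microarrays (Agilent AMADID 015681) probed with GST-tagged S. cerevisiae TFs (full-length or DBD) made by in vitro transcription/translation (PURExpress), about 100-200 nM. Bound TF was detected with fluorescent anti-GST. Each ungapped 8-mer (which stands for itself and its reverse complement) is scored by the PBM enrichment score (E-score), a modified Wilcoxon-Mann-Whitney statistic from -0.5 to +0.5, computed with the Universal PBM Analysis Suite. Scale: above 0.35 generally sequence-specific binding.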

Row | Sequence | PBM E-score
1 | CTTACACC | -0.0282
2 | AGTCCGCC | -0.00998
3 | CACGTACA | 0.216
4 | ATAGTAAG | -0.0804
5 | CAGCTTCG | 0.0898
6 | GCGAGTTA | 0.191
7 | GACTTCGA | -0.0883
8 | CGCAACCG | 0.157
9 | GATTTAGA | -0.00744
10 | AAGCGTAC | 0.216
11 | ATAGGATG | 0.0535
12 | AATCTATA | 0.137
13 | AGCGAGGC | 0.313
14 | CGGGGTGA | 0.00026
15 | TGAGGCCA | -0.0734
16 | CCTTTTTA | 0.109
17 | CGAGGTTA | -0.0559
18 | ACTGTGCA | 0.0102
19 | CATTGGAC | -0.122
20 | AGCCTACG | 0.0461
21 | CGTAAATC | 0.349
22 | TCGGTGAA | 0.0872

Row | Sequence | PBM E-score
23 | AAGCTTAC | 0.029
24 | TAACATGA | -0.0706
25 | AAAACCTC | 0.0279
26 | GAGGGAGA | -0.0926
27 | CGCCCTGC | 0.0489
28 | ATTAAGCA | -0.11
29 | CAGTGCTC | -0.155
30 | TAGAACGA | 0.429
31 | ACTCCGCC | -0.255
32 | ACTCACCC | -0.187
33 | AATATGTA | 0.029
34 | AGGTTCGC | 0.112
35 | ACGACAGG | 0.339
36 | TGAACGAA | 0.434
37 | CAAGTGAA | -0.154
38 | ATACACCC | 0.0584
39 | GGAGTCCA | -0.281
40 | TAATTAAA | -0.0387
41 | CATCCCTC | -0.237
42 | ATCATTGG | -0.215
43 | TAAATGCA | 0.0358
44 | AGCGTTGC | 0.123

Row | Sequence | PBM E-score
45 | AAGAGAAG | -0.0866
46 | TAATCGCA | 0.215
47 | AGTCAGAG | -0.269
48 | AGTGTTGC | -0.165
49 | CAACGGCG | -0.0255
50 | ACTCGGGG | -0.152
51 | CGGCAAAC | 0.116
52 | ACATCGCT | 0.0229
53 | GGACTGTA | -0.208
54 | AGGTTCCA | -0.318
55 | CCTCCAGA | -0.236
56 | AATGCGGT | -0.0656
57 | AGGCAGAT | -0.115
58 | CGTTTTAG | 0.114
59 | GGACCACA | -0.124
60 | GCTCAGGA | -0.107
61 | AAAGTGTT | -0.0118
62 | ACGAAGTA | 0.354
63 | ATTATCGC | 0.00427
64 | CCAATTCC | -0.205
65 | AACTGTGG | -0.238
66 | CGGAAAAA | 0.254

Row | Sequence | PBM E-score
67 | AGGGTATG | -0.0039
68 | ATGGACAA | -0.0186
69 | AGGCAGGC | -0.12
70 | ACCAGAAC | 0.0471
71 | AGAAAGGA | -0.244
72 | ATTTAACA | -0.0508
73 | AATCAAAT | -0.143
74 | GAGAGGAA | -0.048
75 | CGCGTCAG | -0.123
76 | ATACTCAT | 0.0714
77 | ACCGGGGA | -0.176
78 | ACACTGCA | -0.165
79 | ACGTTTGG | 0.209
80 | AAGACGAC | 0.0418
81 | AGCCAACC | 0.0507
82 | TGAGATCA | -0.0722
83 | CTTCTTCC | -0.144
84 | CTAGAGTC | -0.239
85 | AGAGACTC | 0.051
86 | CGAGTGCG | 0.201
